Results reported in PubChem BioAssay AID686979 (National Center for Advancing Translational Sciences (NCATS), 2013).
The campaign covered roughly 420,000 compounds. About 50,000 (12%) were called active. Inconclusive means that the source gave no clear call. Such entries were picked first, then a sample of the others. Calls come from the whole dose curve; as a rule, active = well fitted inhibition curve with a large enough effect; inconclusive = small, poorly fitted or top-dose-only effect; inactive = flat fitted curve, though single readings scatter. Potencies of inconclusive entries are left out as doubtful fits.

assay: qHTS for Inhibitors of human tyrosyl-DNA phosphodiesterase 1 (TDP1): qHTS in cells in presence of CPT; conditions: chicken DT40 Tdp1-/-;hTDP1 cells + 20 nM CPT, ATP luminescence, 48 h; activity change, negative = growth inhibition: at 46.2 µM (top of the series) unless noted; note: nearly all actives have a fitted effect of over 55% in size
In short: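 Cell growth measured by CellTiter-Glo luminescence after a minimum 48 h, 37 C compound exposure with 20 nM CPT in Tdp1-knockout DT40 cells stably expressing hTDP1, seeded 400/well; qHTS titration format.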
% is set by controls: 0 for no effect and ±100 for the full control effect; potency is the fitted concentration of half-maximal effect; tags give direction and shape of the fitted curve.

SMILES | Potency | activity change, negative = growth inhibition
CN(Cc1ccccc1)C(=O)c1ccc(NC(=O)Cc2ccc(NC(=O)C3CCN(C(=O)c4ccccc4)CC3)cc2)cc1 | inconclusive [inhibitor, single point] | –
N#Cc1ccccc1OCC(=O)NC1CCCCCC1 | inconclusive [inhibitor, full curve, poor fit] | –
COC(CNc1ccc([N+](=O)[O-])c(NCC(OC)OC)c1C#N)OC | – | inactive: 2.48%
CCC(=O)Nc1ccccc1-c1nc2ccccc2n(C(CC)C(=O)Nc2cccc(C(C)=O)c2)c1=O (stereo unspecified) | inconclusive [inhibitor, single point] | –
O=C(COc1ccc(S(=O)(=O)N2CCCC2)cc1)NCCC1=CCCCC1 | inconclusive [inhibitor, partial curve] | –
CCC1(CC)C(=O)C2=C3C1[C@H](C(=O)OC)CC(C(=O)OC)C[C@H]3n1c(=O)n(-c3ccccc3)c(=O)n1[C@H]2C (stereo partly specified) | – | inactive: -23.7%
NC(=O)N/N=C/c1ccccc1OCc1cccc2ccccc12 | – | inactive: -1.19%
COc1ccccc1N1CCN(C(=O)C2CCN(S(=O)(=O)c3ccc(Cl)cc3)CC2)CC1 | inconclusive [inhibitor, single point] | –
CCCCCc1c(C)nc(Nc2nc(C)c3cc(OC)ccc3n2)[nH]c1=O | active: 13 µM | –
CCN(CC)CCNC(=O)c1cn(-c2ccccc2)nc1-c1cccs1 | – | inactive: -14.8%
CC(C)(C)c1ccc(OCCSc2nc(-c3cccs3)nc3cc(=O)[nH]n23)cc1 | active: 18.4 µM | –
C=CCN(CC(O)c1cccc([N+](=O)[O-])c1)C(C)CCc1ccccc1 (stereo unspecified) | inconclusive [inhibitor, single point] | –
CCc1nc2ccc(C(=O)Nc3ccc(OC)c(OC)c3)cn2c1N(CC)CCOC | inconclusive [inhibitor, single point] | –
C[C@@H](OC(=O)c1[nH]cnc1C(=O)NCc1ccc(CNC(=O)OC(C)(C)C)cc1)c1ccccc1 | active: 20.6 µM | –
CCNc1nc(NCC)n2c(SCC(=O)Nc3ccc(F)cc3[N+](=O)[O-])nnc2n1 | – | inactive: -1.37%
CC(=O)Nc1ccc(-n2cc3c(c2-c2ccc(C)cc2)c(=O)n(C)c(=O)n3C)cc1 | inconclusive [inhibitor, single point] | –
O=C(CSc1nc2ccccc2c(=O)n1Cc1ccco1)N1CCCCCC1 | active: 20.6 µM | –
CC(C)OC(=O)c1c(N)n(CCCN2CCOCC2)c2nc3ccccc3nc12 | – | inactive: -8.91%

SMILES | Potency | activity change, negative = growth inhibition
CCOC(=O)CCCCCC(=O)Nc1ccc2c(c1)C(=O)N([C@H](C)CO)C[C@H](C)[C@@H](CN(C)S(C)(=O)=O)OCCCC[C@@H](C)O2 | – | inactive: 2.95%
COC(=O)c1ccc(N2CCN(S(=O)(=O)c3ccc(C)cc3)CC2)c([N+](=O)[O-])c1 | active: 18.4 µM | –
Cc1nc(SCC(=O)Nc2c(C)n(C)n(-c3ccccc3)c2=O)n[nH]1 | – | inactive: -10.4%
CN1CCN(c2ncc3nc(-c4ccc(Cl)cc4)c(=O)n(CCC#N)c3n2)CC1 | inconclusive [inhibitor, single point] | –
Cc1ccc(S(=O)(=O)N2CCOCC2)cc1C(=O)OCC(=O)c1c(N)n(C)c(=O)n(C)c1=O | inconclusive [inhibitor, single point] | –
NC(=O)c1sc2nnc(-c3ccccc3)c(-c3ccccc3)c2c1N | – | inconclusive: -30.9% [inhibitor]
O=C1Nc2ccc(F)cc2C12Nc1ccccc1-c1nnc(SCc3ccccc3Cl)nc1O2 (stereo unspecified) | inconclusive [inhibitor, single point] | –
Cn1c(SCC(=O)Nc2ccc(F)cc2)nc2c([nH]c3ccccc32)c1=O | active: 18.4 µM | –
O=C(Nc1ccc(O)c2c(=O)cc(-c3ccccc3Cl)oc12)c1ccc(Cl)c(Cl)c1 | – | inactive: -26.8%
Cc1ccc(CSc2nc3c(c(N(C)C)n2)CCCC3)cc1 | inconclusive [inhibitor, single point] | –
Oc1ccc(N=Cc2c(O)ccc3ccccc23)cc1 | – | inactive: -23.8%
Cc1cc(NC(=O)CSc2cn(CCNC(=O)c3ccc(F)cc3)c3ccccc23)no1 | inconclusive [inhibitor, single point] | –
CCCC(=O)Oc1c(Sc2ccc(Cl)cc2)c(C)nn1-c1ccccc1 | active: 20.6 µM | –
COC(=O)CSc1nnc(NC(=O)CCc2ccccc2)s1 | inconclusive [inhibitor, single point] | –
CN1/C(=C\C=C2/SC(=S)N(CC(=O)O)C2=O)C(C)(C)c2ccccc21 | – | inactive: -30%
COCCN=c1scc(-c2cccs2)n1/N=C/c1ccc(O)c(O)c1O | inconclusive [inhibitor, single point] | –
CC(C)CN(C(=O)COC(=O)COc1ccc2ccccc2c1)c1c(N)n(Cc2ccccc2)c(=O)[nH]c1=O | inconclusive [inhibitor, single point] | –
Cc1ccc(CN2C(=O)c3ccccc3S(=O)(=O)c3ccc(C(=O)OCC4CCCO4)cc32)cc1 (stereo unspecified) | inconclusive [inhibitor, single point] | –
